# Data published in the supplement of paper PMC8728848.
# The list shows a part of the results.
# B1: AAA (Anguilla anguilla), Q7SIC1 (protein)
# chain: VIPEGYTQENVAVRGKATQSAQLRGEHAANSEASNAIDGNRDSNFYHGSCTHSSGQANPWWRVDLLQVYTITSVTITNRGDCCGERISGAEINIGQHLASNGVNNPECSVIGSMATGETKTFHCPAPMIGRYVVTYLPTSESLHLCEVEVNVDKPAAA
# Experiments:
# Experiment in all cases: glycan array binding signal (z-score within array); higher = stronger binding
# Conditions in all cases: glycan notation: IUPAC condensed, linker removed
# [1] = target: Fuc(a1-2)Gal(b1-4)[Fuc(a1-3)]GlcNAc(b1-3)GalNAc
# Procedure, shortened: (§1)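 Arrays were curated from the Consortium for Functional Glycomics database, 3228 in total, and kept only where the protein sequence was available. Binding is expressed as a within-array Z-score. This score was averaged across arrays of the same protein sequence at different concentrations or buffers and across linkers, and negative values can be read as non-binding.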
# [2] = target: Fuc(a1-2)Gal(b1-4)[Fuc(a1-3)]GlcNAc(b1-3)[Neu5Ac(a2-6)Gal(b1-4)GlcNAc(b1-6)]Gal(b1-4)Glc
# Procedure, shortened: as §1
# [3] = target: Fuc(a1-2)Gal3S(b1-4)GlcNAc
# Procedure, shortened: as §1
# [4] = target: Fuc(a1-2)Gal6S(b1-3)GlcNAc
# Procedure, shortened: as §1
# [5] = target: Fuc(a1-2)Gal6S(b1-3)GlcNAc6S
# Procedure, shortened: as §1
# Fuc(a1-2)Gal6S(b1-4)Glc = target: Fuc(a1-2)Gal6S(b1-4)Glc
# Procedure, shortened: as §1
# [6] = target: Fuc(a1-2)Gal6S(b1-4)Glc6S
# Procedure, shortened: as §1
# [7] = target: Fuc(a1-2)Gal6S(b1-4)GlcNAc
# Procedure, shortened: as §1
# Fuc(a1-2)GlcNAc = target: Fuc(a1-2)GlcNAc
# Procedure, shortened: as §1
# Fuc(a1-2)[Gal(a1-3)]Gal = target: Fuc(a1-2)[Gal(a1-3)]Gal
# Procedure, shortened: as §1
# [8] = target: Fuc(a1-2)[Gal(a1-3)]Gal(b1-3)GalNAc
# Procedure, shortened: as §1
# [9] = target: Fuc(a1-2)[Gal(a1-3)]Gal(b1-3)GalNAc(b1-3)Gal(a1-4)Gal(b1-4)Glc
# Procedure, shortened: as §1
# [10] = target: Fuc(a1-2)[Gal(a1-3)]Gal(b1-3)GlcNAc
# Procedure, shortened: as §1
# [11] = target: Fuc(a1-2)[Gal(a1-3)]Gal(b1-3)GlcNAc(b1-2)Man(a1-3)[Fuc(a1-2)[Gal(a1-3)]Gal(b1-3)GlcNAc(b1-2)Man(a1-6)]Man(b1-4)GlcNAc(b1-4)GlcNAc
# Procedure, shortened: as §1
# [12] = target: Fuc(a1-2)[Gal(a1-3)]Gal(b1-3)GlcNAc(b1-2)Man(a1-3)[Fuc(a1-2)[Gal(a1-3)]Gal(b1-3)GlcNAc(b1-2)Man(a1-6)]Man(b1-4)GlcNAc(b1-4)[Fuc(a1-6)]GlcNAc
# Procedure, shortened: as §1
# [13] = target: Fuc(a1-2)[Gal(a1-3)]Gal(b1-3)GlcNAc(b1-3)GalNAc
# Procedure, shortened: as §1
# [14] = target: Fuc(a1-2)[Gal(a1-3)]Gal(b1-3)GlcNAc(b1-6)GalNAc
# Procedure, shortened: as §1
# [15] = target: Fuc(a1-2)[Gal(a1-3)]Gal(b1-4)Glc
# Procedure, shortened: as §1
# [16] = target: Fuc(a1-2)[Gal(a1-3)]Gal(b1-4)GlcNAc
# Procedure, shortened: as §1
# [17] = target: Fuc(a1-2)[Gal(a1-3)]Gal(b1-4)GlcNAc(b1-2)Man
# Procedure, shortened: as §1
# [18] = target: Fuc(a1-2)[Gal(a1-3)]Gal(b1-4)GlcNAc(b1-2)Man(a1-3)[Fuc(a1-2)[Gal(a1-3)]Gal(b1-4)GlcNAc(b1-2)Man(a1-6)]Man(b1-4)GlcNAc(b1-4)GlcNAc
# Procedure, shortened: as §1
# [19] = target: Fuc(a1-2)[Gal(a1-3)]Gal(b1-4)GlcNAc(b1-2)Man(a1-3)[Fuc(a1-2)[Gal(a1-3)]Gal(b1-4)GlcNAc(b1-2)Man(a1-6)]Man(b1-4)GlcNAc(b1-4)[Fuc(a1-6)]GlcNAc
# Procedure, shortened: as §1
# [20] = target: Fuc(a1-2)[Gal(a1-3)]Gal(b1-4)GlcNAc(b1-3)GalNAc
# Procedure, shortened: as §1
# [21] = target: Fuc(a1-2)[Gal(a1-3)]Gal(b1-4)GlcNAc(b1-6)GalNAc
# Procedure, shortened: as §1
# [22] = target: Fuc(a1-2)[Gal(a1-3)]Gal(b1-4)[Fuc(a1-3)]Glc
# Procedure, shortened: as §1
# [23] = target: Fuc(a1-2)[Gal(a1-3)]Gal(b1-4)[Fuc(a1-3)]GlcNAc
# Procedure, shortened: as §1
# [24] = target: Fuc(a1-2)[Gal(a1-3)]Gal(b1-4)[Fuc(a1-3)]GlcNAc(b1-3)GalNAc
# Procedure, shortened: as §1
# [25] = target: Fuc(a1-2)[Gal(a1-4)]Gal(b1-4)GalNAc
# Procedure, shortened: as §1
# [26] = target: Fuc(a1-2)[Gal(a1-4)]Gal(b1-4)GlcNAc
# Procedure, shortened: as §1
# [27] = target: Fuc(a1-2)[GalNAc(a1-3)]Gal
# Procedure, shortened: as §1
# [28] = target: Fuc(a1-2)[GalNAc(a1-3)]Gal(b1-3)GalNAc(a1-3)[Fuc(a1-2)]Gal(b1-4)GlcNAc
# Procedure, shortened: as §1
# [29] = target: Fuc(a1-2)[GalNAc(a1-3)]Gal(b1-3)GalNAc(b1-3)Gal(a1-4)Gal(b1-4)Glc
# Procedure, shortened: as §1
# [30] = target: Fuc(a1-2)[GalNAc(a1-3)]Gal(b1-3)GlcNAc
# Procedure, shortened: as §1
# [31] = target: Fuc(a1-2)[GalNAc(a1-3)]Gal(b1-3)GlcNAc(b1-2)Man(a1-3)[Fuc(a1-2)[GalNAc(a1-3)]Gal(b1-3)GlcNAc(b1-2)Man(a1-6)]Man(b1-4)GlcNAc(b1-4)GlcNAc
# Procedure, shortened: as §1
# [32] = target: Fuc(a1-2)[GalNAc(a1-3)]Gal(b1-3)GlcNAc(b1-2)Man(a1-3)[Fuc(a1-2)[GalNAc(a1-3)]Gal(b1-3)GlcNAc(b1-2)Man(a1-6)]Man(b1-4)GlcNAc(b1-4)[Fuc(a1-6)]GlcNAc
# Procedure, shortened: as §1
# [33] = target: Fuc(a1-2)[GalNAc(a1-3)]Gal(b1-3)GlcNAc(b1-3)GalNAc
# Procedure, shortened: as §1
# [34] = target: Fuc(a1-2)[GalNAc(a1-3)]Gal(b1-3)GlcNAc(b1-6)GalNAc
# Procedure, shortened: as §1
# [35] = target: Fuc(a1-2)[GalNAc(a1-3)]Gal(b1-4)Glc
# Procedure, shortened: as §1
# [36] = target: Fuc(a1-2)[GalNAc(a1-3)]Gal(b1-4)GlcNAc
# Procedure, shortened: as §1
# [37] = target: Fuc(a1-2)[GalNAc(a1-3)]Gal(b1-4)GlcNAc(b1-2)Man
# Procedure, shortened: as §1
# [38] = target: Fuc(a1-2)[GalNAc(a1-3)]Gal(b1-4)GlcNAc(b1-2)Man(a1-3)[Fuc(a1-2)[GalNAc(a1-3)]Gal(b1-4)GlcNAc(b1-2)Man(a1-6)]Man(b1-4)GlcNAc(b1-4)GlcNAc
# Procedure, shortened: as §1
# [39] = target: Fuc(a1-2)[GalNAc(a1-3)]Gal(b1-4)GlcNAc(b1-2)Man(a1-3)[Fuc(a1-2)[GalNAc(a1-3)]Gal(b1-4)GlcNAc(b1-2)Man(a1-6)]Man(b1-4)GlcNAc(b1-4)[Fuc(a1-6)]GlcNAc
# Procedure, shortened: as §1
# [40] = target: Fuc(a1-2)[GalNAc(a1-3)]Gal(b1-4)GlcNAc(b1-3)Gal(b1-4)GlcNAc
# Procedure, shortened: as §1
# [41] = target: Fuc(a1-2)[GalNAc(a1-3)]Gal(b1-4)GlcNAc(b1-3)Gal(b1-4)GlcNAc(b1-3)Gal(b1-4)GlcNAc
# Procedure, shortened: as §1
# [42] = target: Fuc(a1-2)[GalNAc(a1-3)]Gal(b1-4)GlcNAc(b1-3)GalNAc
# Procedure, shortened: as §1
binder,measurement,setting,value
B1,glycan array binding signal (z-score),[1],0.11
same,glycan array binding signal (z-score),[2],-0.2
same,glycan array binding signal (z-score),[3],-0.241
same,glycan array binding signal (z-score),[4],-0.286
same,glycan array binding signal (z-score),[5],-0.144
same,glycan array binding signal (z-score),Fuc(a1-2)Gal6S(b1-4)Glc,0.05
same,glycan array binding signal (z-score),[6],0.211
same,glycan array binding signal (z-score),[7],0.546
same,glycan array binding signal (z-score),Fuc(a1-2)GlcNAc,8.41
same,glycan array binding signal (z-score),Fuc(a1-2)[Gal(a1-3)]Gal,-0.072
same,glycan array binding signal (z-score),[8],-0.142
same,glycan array binding signal (z-score),[9],-0.247
same,glycan array binding signal (z-score),[10],0.046
same,glycan array binding signal (z-score),[11],-0.283
same,glycan array binding signal (z-score),[12],-0.167
same,glycan array binding signal (z-score),[13],-0.242
same,glycan array binding signal (z-score),[14],-0.176
same,glycan array binding signal (z-score),[15],-0.037
same,glycan array binding signal (z-score),[16],-0.106
same,glycan array binding signal (z-score),[17],-0.236
same,glycan array binding signal (z-score),[18],-0.141
same,glycan array binding signal (z-score),[19],-0.136
same,glycan array binding signal (z-score),[20],-0.244
same,glycan array binding signal (z-score),[21],-0.136
same,glycan array binding signal (z-score),[22],-0.099
same,glycan array binding signal (z-score),[23],-0.049
same,glycan array binding signal (z-score),[24],-0.092
same,glycan array binding signal (z-score),[25],-0.425
same,glycan array binding signal (z-score),[26],-0.162
same,glycan array binding signal (z-score),[27],-0.261
same,glycan array binding signal (z-score),[28],-0.243
same,glycan array binding signal (z-score),[29],-0.138
same,glycan array binding signal (z-score),[30],-0.186
same,glycan array binding signal (z-score),[31],-0.276
same,glycan array binding signal (z-score),[32],-0.322
same,glycan array binding signal (z-score),[33],-0.182
same,glycan array binding signal (z-score),[34],-0.208
same,glycan array binding signal (z-score),[35],0.011
same,glycan array binding signal (z-score),[36],-0.12
same,glycan array binding signal (z-score),[37],-0.174
same,glycan array binding signal (z-score),[38],-0.115
same,glycan array binding signal (z-score),[39],-0.097
same,glycan array binding signal (z-score),[40],-0.217
same,glycan array binding signal (z-score),[41],0.148
same,glycan array binding signal (z-score),[42],-0.153
